This note sets out measurements from the antibiotic and cytotoxicity screens of Wong et al. (2023).

This is one part of the list.

The test system of one experiment is HepG2. In words: cytotoxicity call (relative viability < 0.9). To be noted: 10 µM.
`CC(C)NC(=O)Nc1ccc2c(c1)C(=O)N([C@@H](C)CO)C[C@H](C)[C@H](CN(C)S(=O)(=O)c1ccc(Cl)cc1)O2`: the cytotoxicity call was “inactive”. `O=C(Nc1cccc2cccnc12)[C@H]1[C@@H](c2ccc(C(F)(F)F)cc2)CC(=O)N1C(=O)OCc1ccccc1`: the cytotoxicity call is “inactive”.

On to `CS(=O)(=O)NCc1cnc2n1CCN(C(=O)[C@H]1CCOC1)CC2`, for which the cytotoxicity call was “inactive”. As for `O=C1CN(S(=O)(=O)Cc2ccccc2)C[C@@H]2[C@H](c3ccc(C#Cc4cccc(F)c4)cc3)[C@H](CO)N12`, the cytotoxicity call is “active”. On to `N[C@@H](CC(=O)O)c1cccc(O)c1`, for which the cytotoxicity call was “inactive”.

For `COCC(=O)N1C[C@@H](C)[C@@H](OC)CN(C)C(=O)c2ccc(NC(=O)c3ccc(F)cc3)cc2OC[C@@H]1C`, the cytotoxicity call is “inactive”. Take `C[C@@H]1CN([C@@H](C)CO)C(=O)CCCn2cc(nn2)CO[C@@H]1CN(C)C(=O)Nc1cccc(C(F)(F)F)c1`: the cytotoxicity call was “inactive”. For the compound `C=CCN(C(=O)[C@H]1N(CCOCCO)C(=O)[C@H]2[C@H](C(=O)O)[C@@H]3C=C[C@@]21O3)c1ccc(OC)cc1`, the cytotoxicity call is “inactive”.

Consider `COc1cccc(NC(=O)N[C@@H]2C=C[C@H](CC(=O)N3CCOCC3)O[C@@H]2CO)c1`, for which the cytotoxicity call is “inactive”. On to `COc1ccc(S(=O)(=O)Nc2ccc3c(c2)C(=O)N([C@H](C)CO)C[C@@H](C)[C@@H](CN(C)Cc2ccc(C(=O)O)cc2)OCCCC[C@@H](C)O3)cc1`, for which the cytotoxicity call was “inactive”. Consider `COc1ccc(NC(=O)Nc2ccc3c(c2)C(=O)N([C@@H](C)CO)C[C@@H](C)[C@H](CN(C)Cc2ccncc2)OCCCC[C@H](C)O3)cc1`, for which the cytotoxicity call is “inactive”. Take `CC(C)NC(=O)Nc1ccc2c(c1)C(=O)N([C@@H](C)CO)C[C@@H](C)[C@@H](CN(C)Cc1ccc(C(F)(F)F)cc1)OCCCC[C@@H](C)O2`: the cytotoxicity call is “active”. Turning to `COc1cc(C(C)=O)cc(OC)c1O`, the cytotoxicity call is “inactive”.

As to `CO[C@H](CN(C)C(=O)C1CCOCC1)[C@H](C)CN(C(=O)Nc1ccc(C(F)(F)F)cc1)[C@H](C)CO`, the cytotoxicity call was “inactive”. Regarding `CCCC#Cc1ccc2c(c1)O[C@H](CN(C)S(=O)(=O)c1cccc(F)c1)[C@H](C)CN([C@H](C)CO)S2(=O)=O`, the cytotoxicity call is “inactive”. Same read-out and setting: the value for `CNC[C@@H]1OCCCC[C@@H](C)Oc2ccc(NC(=O)Nc3ccc(C(F)(F)F)cc3)cc2C(=O)N([C@H](C)CO)C[C@H]1C` was “inactive”.

Another experiment has as its system S. aureus RN4220. In words: growth inhibition call (relative growth <= 0.2). To be noted: 50 µM.
For the compound `C[C@H]1CCCCO[C@@H](CN(C)C(=O)Nc2ccccc2)[C@@H](C)CN([C@@H](C)CO)C(=O)c2cc(NC(=O)Nc3ccccc3)ccc2O1`, the growth inhibition call was “inactive”. Turning to `C[C@H]1CN([C@@H](C)CO)S(=O)(=O)c2ccc(-c3ccc(C(=O)N(C)C)cc3)cc2O[C@@H]1CN(C)C(=O)C1CCC1`, the growth inhibition call is “inactive”. On the same count and under the same terms, to `COc1ccc(NC(=O)N(C)C[C@@H]2OCc3cnnn3CCCC(=O)N([C@@H](C)CO)C[C@@H]2C)c(OC)c1` belongs “inactive”. Regarding `COC(=O)C1=CC(CCCO)=C[C@@H](c2cccs2)N(Cc2cccc(OC(F)(F)F)c2)C=C1C(=O)OC`, the growth inhibition call is “active”. `C[C@H](CO)N1C[C@H](C)[C@H](CN(C)Cc2ccc3c(c2)OCO3)OCCCC[C@H](C)Oc2ccc(NC(=O)Nc3ccc(F)cc3)cc2C1=O`: the growth inhibition call is “inactive”.

For the compound `O=C(CCCCCC(=O)N/N=C/[C@H](O)[C@@H](O)[C@H](O)[C@H](O)CO[C@H]1O[C@H](CO)[C@H](O)[C@H](O)[C@H]1O)NO`, the growth inhibition call is “inactive”.

On to `Nc1nnc(C(=O)c2ccccc2N)s1`, for which the growth inhibition call was “inactive”.

Consider `O=C([C@@H]1[C@@H](CO)[C@@H]2Cn3c(cccc3=O)[C@H]1N2S(=O)(=O)c1ccccc1F)N1CCOCC1`, for which the growth inhibition call is “inactive”. Same read-out and setting: to `CC1=C(C(=O)NCCCN2CCN(c3ccc(F)cc3)CC2)C2(CCN(Cc3ccccc3)CC2)OC1=O` belongs “inactive”; to `C[C@@H]1CN([C@H](C)CO)C(=O)Cc2cc(NC(=O)Nc3ccc(F)cc3)ccc2O[C@H]1CN(C)S(=O)(=O)c1cn(C)cn1`, “inactive”; to `C[C@H](CO)N1C[C@H](C)[C@@H](CN(C)C(=O)Nc2ccc3c(c2)OCO3)OCCCC[C@H](C)Oc2ccc(NS(=O)(=O)c3ccccc3)cc2C1=O`, “inactive”. As to `CC1=NCC[C@@H](C(=O)O)N1`, the growth inhibition call was “inactive”. As for `CCCCC/C=C\C/C=C\C/C=C\C/C=C\CCCC(=O)O`, the growth inhibition call is “inactive”.

Turning to `C[C@H](CO)N1C[C@H](C)[C@@H](CN(C)Cc2ccc(Oc3ccccc3)cc2)Oc2c(NC(=O)NC3CCCCC3)cccc2C1=O`, the growth inhibition call is “inactive”. `C[C@@H]1CN([C@H](C)CO)C(=O)c2cc(NC(=O)c3ccccc3)ccc2O[C@@H](C)CCCCO[C@H]1CN(C)C(=O)Nc1ccccc1`: the growth inhibition call was “inactive”. As to `Cn1nccc1-c1cccc(CN)c1`, the growth inhibition call is “inactive”. Regarding `C[C@H]1CN([C@@H](C)CO)C(=O)Cc2cc(NC(=O)Cc3ccccc3)ccc2O[C@H]1CN(C)C(=O)Nc1cccc2ccccc12`, the growth inhibition call was “inactive”. The same measure, in the same setting: the value for `CS(=O)(=O)[O-].C[n+]1ccccc1C=NO` was “inactive”; that for `O=C(NN1C(=O)CSC1=S)c1ccco1` was “inactive”; that for `COc1ccc(S(=O)(=O)Nc2ccc3c(c2)C(=O)N([C@H](C)CO)C[C@H](C)[C@H](CN(C)C(=O)Nc2ccccc2)OCCCC[C@@H](C)O3)cc1` was “inactive”. Same read-out and setting: the value for `NC(=O)c1nc2c(s1)CCNCC2` was “inactive”; that for `C[C@@H]1CCCCO[C@H](CN(C)C(=O)Cc2ccccc2)[C@H](C)CN([C@@H](C)CO)C(=O)c2cc(NC(=O)Nc3ccc4c(c3)OCO4)ccc2O1` was “inactive”.

Consider `CCOC(=O)CCCCCC(=O)Nc1ccc2c(c1)C(=O)N([C@H](C)CO)C[C@@H](C)[C@@H](CN(C)C(=O)CCC(F)(F)F)OCCCC[C@H](C)O2`, for which the growth inhibition call was “inactive”. For the compound `C[C@H]1CN([C@@H](C)CO)C(=O)c2cccc(NC(=O)CCCCCC(=O)Nc3ccccc3N)c2O[C@H]1CN(C)C(=O)Nc1ccccc1`, the growth inhibition call was “inactive”. In the case of `CC(C)NC(=O)Nc1ccc2c(c1)C(=O)N([C@@H](C)CO)C[C@H](C)[C@H](CN(C)S(=O)(=O)c1ccc(Cl)cc1)O2`, the growth inhibition call is “inactive”. For the compound `O=C(Nc1cccc2cccnc12)[C@H]1[C@@H](c2ccc(C(F)(F)F)cc2)CC(=O)N1C(=O)OCc1ccccc1`, the growth inhibition call was “inactive”. On the same count and under the same terms, the value for `CS(=O)(=O)NCc1cnc2n1CCN(C(=O)[C@H]1CCOC1)CC2` was “inactive”; that for `O=C1CN(S(=O)(=O)Cc2ccccc2)C[C@@H]2[C@H](c3ccc(C#Cc4cccc(F)c4)cc3)[C@H](CO)N12` was “inactive”.

Consider `N[C@@H](CC(=O)O)c1cccc(O)c1`, for which the growth inhibition call is “inactive”. Same read-out and setting: to `COCC(=O)N1C[C@@H](C)[C@@H](OC)CN(C)C(=O)c2ccc(NC(=O)c3ccc(F)cc3)cc2OC[C@@H]1C` belongs “inactive”. Turning to `C[C@@H]1CN([C@@H](C)CO)C(=O)CCCn2cc(nn2)CO[C@@H]1CN(C)C(=O)Nc1cccc(C(F)(F)F)c1`, the growth inhibition call was “inactive”. As to `C=CCN(C(=O)[C@H]1N(CCOCCO)C(=O)[C@H]2[C@H](C(=O)O)[C@@H]3C=C[C@@]21O3)c1ccc(OC)cc1`, the growth inhibition call was “inactive”. As for `COc1cccc(NC(=O)N[C@@H]2C=C[C@H](CC(=O)N3CCOCC3)O[C@@H]2CO)c1`, the growth inhibition call was “inactive”. In the case of `COc1ccc(S(=O)(=O)Nc2ccc3c(c2)C(=O)N([C@H](C)CO)C[C@@H](C)[C@@H](CN(C)Cc2ccc(C(=O)O)cc2)OCCCC[C@@H](C)O3)cc1`, the growth inhibition call was “inactive”. Turning to `COc1ccc(NC(=O)Nc2ccc3c(c2)C(=O)N([C@@H](C)CO)C[C@@H](C)[C@H](CN(C)Cc2ccncc2)OCCCC[C@H](C)O3)cc1`, the growth inhibition call is “inactive”. For `CC(C)NC(=O)Nc1ccc2c(c1)C(=O)N([C@@H](C)CO)C[C@@H](C)[C@@H](CN(C)Cc1ccc(C(F)(F)F)cc1)OCCCC[C@@H](C)O2`, the growth inhibition call is “inactive”. As to `COc1cc(C(C)=O)cc(OC)c1O`, the growth inhibition call is “inactive”. Turning to `CO[C@H](CN(C)C(=O)C1CCOCC1)[C@H](C)CN(C(=O)Nc1ccc(C(F)(F)F)cc1)[C@H](C)CO`, the growth inhibition call was “active”. The same measure, in the same setting: to `CCCC#Cc1ccc2c(c1)O[C@H](CN(C)S(=O)(=O)c1cccc(F)c1)[C@H](C)CN([C@H](C)CO)S2(=O)=O` belongs “inactive”. For the compound `CNC[C@@H]1OCCCC[C@@H](C)Oc2ccc(NC(=O)Nc3ccc(C(F)(F)F)cc3)cc2C(=O)N([C@H](C)CO)C[C@H]1C`, the growth inhibition call is “inactive”.
